The list shows a part of the results.
B1: chr16:75111859:75112521:-|three_prime_utr|ENSG00000166816|control|control|control (ssRNA)
RNA: GGGAGUUCUACAGUCCGACGAUCGCUGCAGGAGGAGGUGGGCGCCGUGGGCGUGGAGACCAUGCGGCAGCUCAAGGCCGUGCUAGACCCCCAAGGCCUCAUGAAUCCAGGCAAAGUGCUGUGAAGGGGGUCUGAGCACUUAGCCAACAGAGGAUUGAGCAUCA
B2: chr3:160432293:160432405:+|CDS|ENSG00000113810|unk|total|mutant (ssRNA)
RNA: GGGAGUUCUACAGUCCGACGAUCGAAUUGUAUUUGCAACGGGCCGCAGAAUUGGACAAAAUUACUUAUGAAAGAGACAGUUUCCGACAGGCAUAUGAAGAUCUUCGGAAACAAAGGCUUAAUGAAUUUAUGGCAGGUUUUUAUCAACAGAGGAUUGAGCAUCA
B3: chr2:32508095:32508220:+|CDS|ENSG00000115760|unk|FALSE|unique (ssRNA)
RNA: GGGAGUUCUACAGUCCGACGAUCAGCCGAAGUAGCUUCUGCUGUCUGCCUUAGACUACAUCGUCCACGGGAUGCCAGCACAUUAGGCCUUUCACAAAUUAAAUUAUUGGGGCUCACUGCUUUUGGUACCACCUCUUCUGCAACCAACAGAGGAUUGAGCAUCA
B4: chr1:16124349:16124452:-|3pUTR|ENSG00000142627|msi1|FALSE|unique (ssRNA)
RNA: GGGAGUUCUACAGUCCGACGAUCUUUGUUUUGUUGGACAUUUUUUUCGAAUCUUAAUUUAUUAUUUUUUUUAUAUUUAUUGUUAGAAAAUGACUUAUUUCUGCUCUGGAAUAAAGUUGCAGAUGAUUCAAACCGAUCUUGGCUCAACAGAGGAUUGAGCAUCA
B5: chr18:2547350:2547451:-|CDS|ENSG00000101574|unk|total|mutant (ssRNA)
RNA: GGGAGUUCUACAGUCCGACGAUCCCGACAGAAGCACCUACGUUUUAUAAAGGAAGAACUUUAUCCCUCUUGGUCUGUGGAGGCCGUUGCUGAGUGGCACUGGGUAAAAGUAAGUUCAGAAGUCCGCUUAUUUGUUAAUACAGCCAACAGAGGAUUGAGCAUCA
B6: chr17:48762233:48762973:-|three_prime_utr|ENSG00000170703|control|control|control (ssRNA)
RNA: GGGAGUUCUACAGUCCGACGAUCGUCUCUUCCGACAGUGUCUCCAGUGUUCACAGAAUCAACUGAAGUUUUGUUUGCUCAUCUAGAUAUACUGGUCUUCCAUUAGUUCCUAGUAGCAGCAAUGGGGCCAACAGCCCUGCCUCUCAACAGAGGAUUGAGCAUCA
B7: chr11:74334375:74334476:-|3pUTR|ENSG00000165434|msi1|FALSE|unique (ssRNA)
RNA: GGGAGUUCUACAGUCCGACGAUCUUUUUGUUUUAUUUUUAAAAUGUGUAAAACAUCUUUUGUUUUAUAUGCUUUUAAGAAUGUAGAUUGUAAUUUAGGAAAUGGCAUAUAUUCUGCAAAGUGGUAUAAUGUUGUAUAUAUGAACAACAGAGGAUUGAGCAUCA
B8: chr22:45843749:45843850:+|3pUTR|ENSG00000130638|msi1|FALSE|unique (ssRNA)
RNA: GGGAGUUCUACAGUCCGACGAUCAAAUUGCAAGUGUUUGAAGAUUUAUAAGUACAAAUUUGGGAACAUACAAAUCUUUUAGGUAGUAGAGUUUAACGUGUAUAAGCUAAAAGUGAAAGUAACUGAGUGUUCUCUUGUUUCUUUCAACAGAGGAUUGAGCAUCA
B9: chr11:119418629:119418730:-|3pUTR|ENSG00000154096|msi1|total|mutant (ssRNA)
RNA: GGGAGUUCUACAGUCCGACGAUCCCUCAGAGGCCUUGGGGCAUGACCCAGUGAAGAUGCAGGUUUGACCAGGAAAGCAGCGCCCGUGGAGGGUUGGAGAAGGAGGUAAAGGAUGAGGGUUCAUCAUCCCUCCCUGCCUAAGGACAACAGAGGAUUGAGCAUCA
B10: chr2:206003504:206003605:-|3pUTR|ENSG00000114933|msi1|total|mutant (ssRNA)
RNA: GGGAGUUCUACAGUCCGACGAUCGGUCGUGUGAGCCGCACAACCUUUUUCUGCUAAAAGUCCGCCCAAGAAGAAACAGAACACCGAAAGCUUGGAUUCCCGUCAGUGAGGCCGGGAUGUCCUAAAAAGCUUGCCUGGGAUGACCAACAGAGGAUUGAGCAUCA
B11: chr17:39471515:39471616:+|CDS|ENSG00000167258|unk|FALSE|unique (ssRNA)
RNA: GGGAGUUCUACAGUCCGACGAUCUUGCCUCCAAUACCAGCUCUUCCACAGCAACCACCUCUGCCUCCUUCUCAGCCAGCAUUUAGUCAGGUUCCUGCUUCCAGUACUUCAACUUUGCCCCCUUCUACUCACUCAAAGACAUCUCAACAGAGGAUUGAGCAUCA
B12: chr1:165890246:165890361:+|CDS|ENSG00000143179|unk|total|mutant (ssRNA)
RNA: GGGAGUUCUACAGUCCGACGAUCCUCCUGGGGCAGAAUGAGGUGGACUAUCGCCAGAAGCAGGUGGUCAUCCUGAGCCAGGACCGCUUCUACCGUGUCCUUACCUCGGAGCAGAAGGCCAAAGCCCUGAAGGGCCAGUUCAACCAACAGAGGAUUGAGCAUCA
B13: chr2:30158716:30158817:+|CDS|ENSG00000119801|msi1|total|mutant (ssRNA)
RNA: GGGAGUUCUACAGUCCGACGAUCGUUUGCCACUGAAGACAGCCAGCGAUAUAAGGAAGGCCGCGUGAUCCUGGAACGUGCUCCCGUUCGAGAGAGUGAGGGCUUUGAGGAGCAUGUACCAUCUGAUAACUCUUGAAGAUACAGCAACAGAGGAUUGAGCAUCA
B14: chr6:33573622:33573723:-|3pUTR|ENSG00000030110|unk|total|mutant (ssRNA)
RNA: GGGAGUUCUACAGUCCGACGAUCCGAAGUCUUUGCCUUCUCUGUUCCCUUGCAGGGGUCCCCCCUCAAGAGUACAGAAGCUUCCGCAAGUGUGCACUCCAGCUUCGGAGGGCCCCUGCGUGGGGGCCAGUCAGGCUGCAGAGGCAACAGAGGAUUGAGCAUCA

biological target: MSI1 full-length (mouse, UniProt Q61474 1-362); test: nsRBNS (natural sequence RNA bind-n-seq); RBNS binding buffer (assumed for nsRBNS): 25 mM Tris pH 7.5, 150 mM KCl, 3 mM MgCl2, 0.01% Triton X-100, 500 ug/ml BSA, 20 U/ml SUPERase-In, 4 C; UNK is unkempt and MSI1 is Musashi-1; names of the RNAs are library labels; protein concentration not given here; high values mean tight binding
Sequence of UniProt Q61474 (Q61474 whole entry): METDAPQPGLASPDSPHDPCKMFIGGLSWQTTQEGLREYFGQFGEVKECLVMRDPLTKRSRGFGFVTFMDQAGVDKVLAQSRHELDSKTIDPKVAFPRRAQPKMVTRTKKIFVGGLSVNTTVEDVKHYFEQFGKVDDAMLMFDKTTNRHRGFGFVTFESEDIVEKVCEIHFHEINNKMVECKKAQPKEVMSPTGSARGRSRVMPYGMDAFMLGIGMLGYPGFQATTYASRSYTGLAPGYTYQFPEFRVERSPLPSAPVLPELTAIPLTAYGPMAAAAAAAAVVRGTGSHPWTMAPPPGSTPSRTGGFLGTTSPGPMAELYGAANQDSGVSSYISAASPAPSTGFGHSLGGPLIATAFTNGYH

First: B1
Second: B2
The binding signal of the first is higher: 0.465 enrichment R for the first, 0.405 enrichment R for the second.

Going from B3 to B4, the binding signal rises from 0.534 enrichment R to 4.58 enrichment R.

Going from B5 to B6, the binding signal rises from 0.46 enrichment R to 1.03 enrichment R.

First: B7
Second: B8
The binding signal of the first is lower: 3.15 enrichment R for the first, 7.75 enrichment R for the second.

Going from B9 to B10, the binding signal falls from 0.415 enrichment R to 0.304 enrichment R.

First: B11
Second: B12
The binding signal of the first is higher: 1.22 enrichment R for the first, 0.367 enrichment R for the second.

Going from B13 to B14, the binding signal falls from 0.472 enrichment R to 0.277 enrichment R.

From publication PMC12136788
